Source: PubChem BioAssay AID463173 (ICCB-Longwood Screening Facility, Harvard Medical School, 2010)
In all, about 52,000 compounds went through this assay and about 4,300 (8.3%) were called active. No stated cut-off is given here; in the data, active means survival mostly below about 52% (no sharp cut-off); inactive means mostly above about 56%. Some of the results follow.

Tested on: DeltatarO mutant
Assay: growth inhibition of S. aureus wild type versus tarO mutant, primary screen, teichoic acid synthesis inhibitors, RN4220, OD600 (AID 463173)
Settings: OD600, 18 h, active compounds read low, screened at 18.75 µg/mL (by protocol)

Row | SMILES | survival
1 | Cn1c2ccc(F)cc2c2nnc(SCCN3CCCCC3)nc21 | inactive: 174%
2 | CCCc1cc(=O)oc2cc(C)c3c(-c4ccccc4)c(C)oc3c12 | active: -10%
3 | CC(C)NC(=O)c1sc2ncccc2c1-n1cccc1 | inactive: 99%
4 | CCOc1ccccc1NC(=O)CN1C(=O)C(=O)c2ccccc21 | inactive: 94%
5 | COc1ccccc1CNC(=O)c1cc(-c2ccccc2)n[nH]1 | inactive: 80%
6 | O=C(CCS(=O)(=O)c1nc(-c2cccs2)cc(C(F)(F)F)n1)Nc1cccc(O)c1 | inactive: 66%
7 | CCOC(=O)Cn1cnc2c(cnn2-c2ccc(C)c(C)c2)c1=O | inactive: 100%
8 | CC1CCC(NC(=O)CCc2cn(Cc3ccc(F)cc3)c3ccccc23)CC1 (stereo unspecified) | inactive: 60%
9 | COc1ccc(NC(=O)c2nc(S(=O)(=O)Cc3ccc(C)cc3)ncc2Cl)cc1 | active: 32%
10 | Cc1ccccc1C(=O)NCc1ccc2c(c1)CCN2C(=O)c1ccc(F)cc1 | inactive: 88%
11 | O=C(O)C1=CC(c2ccc(Br)cc2)n2ncnc2N1 (stereo unspecified) | inactive: 103%
12 | CCOc1ccc(CCNC(=O)c2sc3nc4n(c(=O)c3c2C)CCCC4)cc1 | inactive: 75%
13 | Cc1sc2c(c1C)c(=O)n(Cc1ccccc1)c(=O)n2CC(=O)Nc1cccc(Cl)c1 | inactive: 71%
14 | O=C(COc1ccccc1)Nc1ccccc1N1CCN(c2ccccc2)CC1 | inactive: 95%
15 | CCc1ccc(N=C2NC(=O)CS2)cc1 | inactive: 64%
16 | O=C(O)Cn1nc(N2CCN(c3ccccc3)CC2)ccc1=O | inactive: 93%
17 | O=C(/C=C/c1ccco1)Nc1ccc(-c2cc3ccccc3oc2=O)cc1 | inactive: 50%
18 | COc1ccc(OCC(=O)N2CCN(C(=O)c3ccc(OC)cc3)CC2)cc1 | inactive: 69%
19 | CCOc1ccc(Nc2nc(Nc3ccc(OCC)cc3)nc(N3CCOCC3)n2)cc1 | active: 44%
20 | COc1ccc(CCNC(=O)CCCn2c(=O)c3cccn3c3ccc(F)cc32)cc1OC | active: 43%
21 | COc1ccc(NC(=O)CC2C(=O)N(c3ccc(C)cc3)C(=O)N2C2CCCC2)cc1 (stereo unspecified) | inactive: 128%
22 | CCOc1ccc(C(=O)c2cn(CC(=O)Nc3ccc(C)c(C)c3)c3ccc(OCC)cc3c2=O)cc1 | inactive: 77%
23 | COc1ccc(N2CC(NC(=O)c3ccc(S(=O)(=O)N4CCOCC4)cc3)CC2=O)cc1 (stereo unspecified) | inactive: 70%

Row | SMILES | survival
24 | CCOC(=O)CSc1ncnc2c1c(-c1ccccc1)cn2-c1ccc(OC)cc1 | inactive: 60%
25 | CCS(=O)(=O)c1nc(S(=O)(=O)c2ccc(C)cc2)c(NCc2ccccc2Cl)s1 | inactive: 81%
26 | O=C(NCc1ccc(Cl)cc1)c1cc(-c2ccc(F)cc2)on1 | inactive: 79%
27 | Cc1ccccc1OCC(=O)N(Cc1ccc(C(C)C)cc1)C1CCS(=O)(=O)C1 (stereo unspecified) | active: 31%
28 | Cc1ccc(C)c(CN2C(=O)C(O)(c3c[nH]c4ccccc34)c3ccccc32)c1 (stereo unspecified) | inactive: 142%
29 | COC(=O)CN1C(=O)C(C)(C)c2cc(S(=O)(=O)Nc3ccc(C(C)C)cc3)ccc21 | inactive: 79%
30 | Cc1cc(C)nc(/N=C(/N)N2CCCCC2)n1 | inactive: 105%
31 | COc1cccc(NC(=O)c2oc3ccccc3c2NC(=O)Cc2cccc(C)c2)c1 | inactive: 58%
32 | COC(=O)c1ccc(Cl)cc1NC(=O)N1CCC(CN2CCC(C)CC2)CC1 | inactive: 75%
33 | CCc1cccc(NC(=O)c2coc(=O)c3ccccc23)c1 | inactive: 54%
34 | Cc1cn2c(=O)cc(COC(=O)C(C)Oc3ccccc3)nc2s1 (stereo unspecified) | inactive: 81%
35 | CCOc1ccc(-c2nonc2NC(=O)c2oc3cc(Br)ccc3c2C)cc1 | inactive: 88%
36 | O=C(Cn1c(C(=O)N2CCN(C3CCCCC3)CC2)cc2sccc21)c1ccccc1 | inactive: 100%
37 | CC(NC(=O)c1cc2sccc2n1Cc1ccc(F)cc1)c1ccccc1 (stereo unspecified) | inactive: 89%
38 | CCc1cccc(C)c1NS(=O)(=O)c1ccc(-n2cccn2)cc1 | inactive: 117%
39 | Cn1c(=O)oc2cc(S(=O)(=O)Nc3ccccc3)ccc21 | inactive: 103%
40 | CC(=O)N1CCCc2cc(S(=O)(=O)NCc3ccc(OC(C)C)cc3)ccc21 | inactive: 80%
41 | CCOC(=O)c1c(C)oc2nc(C)nc(NCCc3ccc(S(N)(=O)=O)cc3)c12 | inactive: 77%
42 | CCOC(=O)c1[nH]cnc1C(=O)N1CCOCC1 | inactive: 63%
43 | COc1cc(SC)ccc1C(=O)NCC#N | inactive: 105%
44 | CCOc1ccccc1Nc1ccc2cc(S(=O)(=O)N3CCCCC3)ccc2n1 | inactive: 74%
45 | CCCSCCCNC(=O)CN1C(=O)COc2ccc(S(=O)(=O)N3CCCCCC3)cc21 | active: 62%
46 | O=C(Nc1ccc(F)cc1F)C1CCCN1S(=O)(=O)c1cccc2nsnc12 (stereo unspecified) | inactive: 94%
